According to US20230114801A1 (SYSTIMMUNE, published 2023):

T1: CD19 (UniProt P15391 20-291, limits assumed)
T1 sequence (looked up): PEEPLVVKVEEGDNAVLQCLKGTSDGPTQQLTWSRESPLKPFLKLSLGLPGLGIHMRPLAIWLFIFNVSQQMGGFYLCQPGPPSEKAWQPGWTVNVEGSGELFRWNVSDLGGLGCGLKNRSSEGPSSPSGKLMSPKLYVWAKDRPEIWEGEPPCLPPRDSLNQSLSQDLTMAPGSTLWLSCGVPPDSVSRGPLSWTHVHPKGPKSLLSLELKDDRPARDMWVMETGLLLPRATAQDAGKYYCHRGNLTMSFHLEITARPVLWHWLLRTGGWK

B1: SI-68X2 (other)
chain 1: DIQMTQSPSSLSASVGDRVTITCQASQDISNYLNWYQQKPGKAPKLLIYDASNLETGVPSRFSGSGSGTDFTFTISSLQPEDIATYFCQHFDHLPLAFGCGTKVEIKGGGGSGGGGSGGGGSGGGGSQVQLQESGPGLVKPSETLSLTCTVSGGSVSSGDYYWTWIRQSPGKCLEWIGHIYYSGNTNYNPSLKSRLTISIDTSKTQFSLKLSSVTAADTAIYYCVRDRVTGAFDIWGQGTMVTVSTGGGGSGGGGSEVQLVESGGGLVQPGGSLRLSCAASGFTISTNAMSWVRQAPGKGLEWIGVITGRDITYYASWAKGRFTISRDNSKNTLYLQMNSLRAEDTAVYYCARDGGSSAITSNNIWGQGTLVTVSSASTKGPSVFPLAPSSKSTSGGTAALGCLVKDYFPEPVTVSWNSGALTSGVHTFPAVLQSSGLYSLSSVVTVPSSSLGTQTYICNVNHKPSNTKVDKRVEPKSCDKTHTCPPCPAPEAAGGPSVFLFPPKPKDTLMISRTPEVTCVVVDVSHEDPEVKFNWYVDGVEVHNAKTKPREEQYASTYRVVSVLTVLHQDWLNGKEYKCAVSNKALPAPIEKTISKAKGQPREPQVCTLPPSRDELTKNQVSLSCAVKGFYPSDIAVEWESNGQPENNYKTTPPVLDSDGSFFLVSKLTVDKSRWQQGNVFSCSVMHEALHNHYTQKSLSLSPGK
chain 2: QSALTQPASVSGSPGQSITISCTGTSSDVGGYNFVSWYQQHPGKAPKLMIYDVSDRPSGVSDRFSGSKSGNTASLIISGLQADDEADYYCSSYGSSSTHVIFGCGTKVTVLGGGGSGGGGSGGGGSGGGGSQVQLQESGGGLVKPGGSLRLSCAASGFTFSSYWMSWVRQAPGKCLEWVANINRDGSASYYVDSVKGRFTISRDDAKNSLYLQMNSLRAEDTAVYYCARDRGVGYFDLWGRGTLVTVSTGGGGSGGGGSDVVMTQSPSTLSASVGDRVTINCQASESISSWLAWYQQKPGKAPKLLIYEASKLASGVPSRFSGSGSGTEFTLTISSLQPDDFATYYCQGYFYFISRTYVNSFGGGTKVEIKRTVAAPSVFIFPPSDEQLKSGTASVVCLLNNFYPREAKVQWKVDNALQSGNSQESVTEQDSKDSTYSLSSTLTLSKADYEKHKVYACEVTHQGLSSPVTKSFNRGECGG[human IgG1 Fc with L234A L235A N297A K322A S354C T366W (EU numbers) cut from this listing]
notes: tri-miniGNC, all scFv stapled; D1 αEGFR*, D2 αHER3, D3 αCD3 (Fab); also called tri-miniGNC (SI-68X2)
B2: SI-68E1 (other)
chain 1: DIQMTQSPSSLSASVGDRVTITCQASQDISNYLNWYQQKPGKAPKLLIYDASNLETGVPSRFSGSGSGTDFTFTISSLQPEDIATYFCQHFDHLPLAFGCGTKVEIKGGGGSGGGGSGGGGSGGGGSQVQLQESGPGLVKPSETLSLTCTVSGGSVSSGDYYWTWIRQSPGKCLEWIGHIYYSGNTNYNPSLKSRLTISIDTSKTQFSLKLSSVTAADTAIYYCVRDRVTGAFDIWGQGTMVTVSTGGGGSGGGGSEVQLVESGGGLVQPGGSLRLSCAASGFTISTNAMSWVRQAPGKGLEWIGVITGRDITYYASWAKGRFTISRDNSKNTLYLQMNSLRAEDTAVYYCARDGGSSAITSNNIWGQGTLVTVSSASTKGPSVFPLAPSSKSTSGGTAALGCLVKDYFPEPVTVSWNSGALTSGVHTFPAVLQSSGLYSLSSVVTVPSSSLGTQTYICNVNHKPSNTKVDKRVEPKSCDKTHTCPPCPAPEAAGGPSVFLFPPKPKDTLMISRTPEVTCVVVDVSHEDPEVKFNWYVDGVEVHNAKTKPREEQYASTYRVVSVLTVLHQDWLNGKEYKCAVSNKALPAPIEKTISKAKGQPREPQVCTLPPSRDELTKNQVSLSCAVKGFYPSDIAVEWESNGQPENNYKTTPPVLDSDGSFFLVSKLTVDKSRWQQGNVFSCSVMHEALHNHYTQKSLSLSPGGGGGSGGGGSRSLVESGGGLVQPGGSLRLSCTASGFTISSYHMQWVRQAPGKCLEYIGTISSGGNVYYASSARGRFTISRPSSKNTVDLQMNSLRAEDTAVYYCARDSGYSDPMWGQGTLVTVSSGGGGSGGGGSGGGGSGGGGSDVVMTQSPSSVSASVGDRVTITCQASQNIRTYLSWYQQKPGKAPKLLIYAAANLASGVPSRFSGSGSGTDFTLTISDLEPGDAATYYCQSTYLGTDYVGGAFGCGTKVEIK
chain 2: B1 chain 2
notes: tetra-miniGNC, all scFv stapled; D1 αEGFR*, D2 αHER3, D3 αCD3 (Fab), D4 α4-1BB
B3: SI-49R25 (other)
chain 1: EIVMTQSPSTLSASVGDRVIITCQASESISSWLAWYQQKPGKAPKLLIYEASKLASGVPSRFSGSGSGAEFTLTISSLQPDDFATYYCQGYFYFISRTYVNSFGCGTKLTVLGSTGSGSKPGSGEGSTKGEVQLVESGGGLVQPGGSLRLSCTASGFTISTNAMSWVRQAPGKCLEWVGVITGRDITYYASWAKGRFTISRDTSKNTVYLQMNSLRAEDTAVYYCARDGGSSAITSNNIWGQGTLVTVSTGGGGSGGGGSFLNSLFNQEVQIPLTESYCGPCPKNWICYKNNCYQFFDESKNWYESQASCMSQNASLLKVYSKEDQDLLKLVKSYHWMGLVHIPTNGSWQWEDGSILSPNLLTIIEMQKGDCALYASSFKGYIENCSTPNTYICMQRTVASTKGPSVFPLAPSSKSTSGGTAALGCLVKDYFPEPVTVSWNSGALTSGVHTFPAVLQSSGLYSLSSVVTVPSSSLGTQTYICNVNHKPSNTKVDKRVEPKSCDKTHTCPPCPAPEAAGGPSVFLFPPKPKDTLMISRTPEVTCVVVDVSHEDPEVKFNWYVDGVEVHNAKTKPREEQYASTYRVVSVLTVLHQDWLNGKEYKCAVSNKALPAPIEKTISKAKGQPREPQVCTLPPSRDELTKNQVSLSCAVKGFYPSDIAVEWESNGQPENNYKTTPPVLDSDGSFFLVSKLTVDKSRWQQGNVFSCSVMHEALHNHYTQKSLSLSPG
chain 2: ENVLTQSPASLSASPGERVTITCSASSSVSYMHWYQQKPGQAPKLWIYDTSKLASGVPSRFSGSGSGNDHTLTISSMEPEDFATYYCFQGSVYPFTFGQGTKLEIKGSTGSGSKPGSGEGSTKGQVTLKESGPGLVQPGQTLRLTCAFSGFSLSTSGMGVGWIRQPPGKGLEWLAHIWWDDDKRYNPALKSRLTISKDTSKNQVYLQMNSLDAEDTAVYYCARMELWSYYFDYWGQGTLVTVSTGGGGSGGGGSFLNSLFNQEVQIPLTESYCGPCPKNWICYKNNCYQFFDESKNWYESQASCMSQNASLLKVYSKEDQDLLKLVKSYHWMGLVHIPTNGSWQWEDGSILSPNLLTIIEMQKGDCALYASSFKGYIENCSTPNTYICMQRTVRTVAAPSVFIFPPSDEQLKSGTASVVCLLNNFYPREAKVQWKVDNALQSGNSQESVTEQDSKDSTYSLSSTLTLSKADYEKHKVYACEVTHQGLSSPVTKSFNRGECGG[human IgG1 Fc with L234A L235A N297A K322A S354C T366W (EU numbers) cut from this listing]
notes: tri-miniGNC; D1 αCD3, D2 αCD19, D3 NKG2D receptor dimer

Assays:
human HER3 = molecular target: T2, human HER3 (human, UniProt P21860 partial chain); assay: BLI (Octet), binder on AHC sensor, 200 nM human HER3, 1:1 fit
T2 construct: Soluble antigen in Octet; bought; also called human HER3 (Acro ER3-H5223)

human CD3 [1] = molecular target: T3, human CD3 (human, UniProt P07766 23-126; P04234 22-105); assay: BLI (Octet), binder on AHC sensor, 100 nM human CD3, 1:1 fit
T3 construct: also called His-tagged human CD3; human CD3 (Acro CDD-H52W1)

human EGFR = molecular target: T4, human EGFR (human, UniProt P00533 partial chain, limits assumed); assay: BLI (Octet), binder on AHC sensor, 200 nM human EGFR, 1:1 fit
T4 construct: Soluble antigen in Octet; construct not described

human 4-1BB = molecular target: T5, human 4-1BB (human, UniProt Q07011 24-186, limits assumed); assay: BLI (Octet), binder on AHC sensor, 400 nM human 4-1BB, 1:1 fit
T5 construct: Soluble antigen in Octet; construct not described

NKG2D ligand = assay: BLI (Octet); conditions and ligand not stated
CD19 = molecular target: T1, CD19; assay: BLI (Octet); conditions not stated
human CD3 [2] = molecular target: T3, human CD3; assay: BLI (Octet); conditions not stated
T3 sequence (P07766 23-126, chain 1 of 2): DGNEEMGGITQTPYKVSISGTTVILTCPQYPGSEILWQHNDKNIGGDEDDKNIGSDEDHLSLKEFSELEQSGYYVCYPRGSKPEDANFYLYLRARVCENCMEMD
T3 sequence (P04234 22-105, chain 2 of 2, further chain): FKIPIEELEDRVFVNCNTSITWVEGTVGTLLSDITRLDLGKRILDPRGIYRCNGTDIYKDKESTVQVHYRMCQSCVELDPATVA

Sequence of human 4-1BB (Q07011 24-186 limits assumed): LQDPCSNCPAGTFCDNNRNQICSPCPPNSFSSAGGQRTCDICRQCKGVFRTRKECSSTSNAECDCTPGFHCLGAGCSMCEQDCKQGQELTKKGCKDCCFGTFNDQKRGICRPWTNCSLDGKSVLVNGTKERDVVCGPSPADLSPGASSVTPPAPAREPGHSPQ

| Binder | Kd (human HER3) [nM] | Kd (human CD3 [1]) [nM] | Kd (human EGFR) [nM] | Kd (human 4-1BB) [nM] | Kd (NKG2D ligand) [nM] | Kd (CD19) [nM] | Kd (human CD3 [2]) [nM] |
| --- | --- | --- | --- | --- | --- | --- | --- |
| B1 | 114 | 24.3 | < 0.001 |  |  |  |  |
| B2 | 139 | 26.2 | < 0.001 | 12.7 |  |  |  |
| B3 |  |  |  |  | 12.8 | 7.62 | 34.5 |
